The source gives no read counts; variants with many changes may rest on few reads.
B1: OR4K15 (parent)
chain: GUUAACGGUCAUAGGCCAUGGAAACUAGGAGCACCAUUUCGCUGCCAGUGAAGAAAUGAACAAAGAAAAUCUGGGCCAGGCAGGCAUCAAAAGAAAUAGUCUUGCGCUCAACCAGAAAGUCUGUAAUCAUUUUAAGGGUA

Variants of: B1
Assay: self-cleavage, relative activity (ratio to wild type); higher = more cleavage; in vitro, sequencing; the parent is a self-cleaving ribozyme

Question: With GUUAACGGUCAUAGGCCAUGGAAACUAGGAGCACCAUUCCGCUGCCAGUGAAGAAAUGAACAAAUAAAAUCUGGGCCAGGCAGGCAUCAAAAGAAAUAGACUUGCGCUCAACCAGAAGGUCUGUAAUCAUUUUAAGGGUA [U39C G65U U100A A118G] as the variant, how does the self-cleavage read?
Answer: Its self-cleavage is 0.46.

Question: For GUUAACGGUCAUUGGCCAUGGAAACUAGGAGCACCAUUACGCUGCCAGUGAAGAAAUGAACAAAGGAAAUCUGGGCCAGGCAGGCAUCAAAAGAAAUAGUCUUGCGCUCGACCAGAAAGUCUGUAAUCAUUUUAAGGGUA [A13U U39A A66G A110G], which self-cleavage is on record?
Answer: The self-cleavage was 0.27.

Question: With GUUAACGGUCAUAGGCCAUGGAAACUAGGAGCACCAUUUCGCUGCCAGUGAAGAAAUGAACAAAGAAAGUCUGGGCCAGGCAAGCAUCGAAAGAAAUAGUCUUGCGCUCAACCAGAAAGUCUGUAAUCAUUUUAAGGGUA [A69G G83A A89G] as the variant, how does the self-cleavage read?
Answer: The self-cleavage was 1.64.

Question: For GUUAACGGUCAUAGGCCAUGGAAACUAGGAGCACCAUUUCGCUGCCAGUGUAGGAAUGAACAAAGAAAAUCUGGGCCAGGCAGGCAUCAAAAGAAAUAGUCUUGCGCUCAACCGGAAAGUCUGUAAUCAUUUUAAGGGUA [A51U A54G A114G], which self-cleavage is on record?
Answer: The self-cleavage was 0.8.

Question: For GUUAACGGUCAUAGGCCAUGGAACCUAGGAGCACCAUUUCGCUGCCAGUGAAGCAAUGAACAAAGAAAAUCUGGGCCAGGCAGGCAUCAAAAGAAAUAGUCUCGCGCUCAACCAGAAAGUCUGUAAUCAUUUUAGGGGUA [A24C A54C U103C A135G], which self-cleavage is on record?
Answer: The self-cleavage was 1.05.

Question: With GUUAGCGGUCAUAGGCCAUGGAAACUAGGAGCACCAUUCCGCUGCCAGUGAAGAAAUGAACAAAGAAAAUCUGGGCCAGGCAGGCACCAAAAGAAAUAGUCUUGCGCUCAACCAGAACGUCUAUAAUCAUUUUAAGGGUA [A5G U39C U87C A118C G123A] as the variant, how does the self-cleavage read?
Answer: The self-cleavage was 0.46.

Question: Which self-cleavage does the source give for GUUAACGGUCAUAGGCCACGGAAACUAGGAGCACCAUUUCGCUGCCAGCGAAGAAAUGAACAAAGAAAAUCUGGGCCAGGCAGGCGUCAAAAGAAAUAGUCUUGCGCUCAACCAGAAAGUCUGUAAUCAUUUUAAGGGUA [U19C U49C A86G] here?
Answer: Its self-cleavage is 0.45.

Question: With GUUAACGGUCAUAGGCCAUGGAAACUAGGAGCACCAUUUCGCUGCCAGUGAAGAUAUGAACAAAGAAAAUCUGGGCCAGGCGGGCAUCAAAAGAAAUAGUCUUGCGCUCAACCAGAAAGUCUGUAAUCAUUUUAUGGGUA [A55U A82G A135U] as the variant, how does the self-cleavage read?
Answer: The self-cleavage was 0.58.

Question: Which self-cleavage does the source give for GUUAACGGUCAUAGGCCAUGGAAACUAGGAGCACCAUAUCGUUACCAGUGAAGAAAUGAACAAAGAAAAUCUGGGCCAGGCAGGCAUCAAAAGAAAUAGUCUCGCGCUCAACCAGAAAGUCUGUAAUCAUUUUAAGGGUA [U38A C42U G44A U103C] here?
Answer: Its self-cleavage is 1.32.

Question: Which self-cleavage does the source give for GUUAACGGUCAUAGGCCAUGGAAACUAGGAUCACCAUUUCGCUGCCAGAGAAGAAAUGAACAAGGAAAAUCUGGGCCAGGCAGGCAUCAAAAGAAAUAGUCUUGCGCUCAACCAGAAAGUCUGUAAUCAUUUUAAGGGUA [G31U U49A A64G] here?
Answer: Its self-cleavage is 0.9.

Question: With GUUAACGGUCAUAGGCCUUGGAAACUGGGAGCACCAUUUCGCUGCCAGCGAAGUAAUGAACAAAGAAAAUCUGGGCCAGGCAGGCAUCAAAAGAAAUAGUCUUGCGCUCAACCGGAAAGUCUGUAAUCAUUUUGAGGGUA [A18U A27G U49C A54U A114G A134G] as the variant, how does the self-cleavage read?
Answer: The self-cleavage was 0.28.

Question: With GUUAACGGUCAUAGGCCAUGGAAACUAGGAGCACCAUUUCGCUGCCAGUGAAGAAAUGAACAAAGAAAAUCUGGGCCAGGCUGGCAUCAAAAGAAGUAGUCUUGCGCUCAACCAGAAAGUCUGUAAUCACUUUAAGGGUA [A82U A96G U130C] as the variant, how does the self-cleavage read?
Answer: Its self-cleavage is 0.11.

Question: For GUUAACGGUCAUAGGCCAUGGAAACUGGGAGCACCAUUUCGCUGCCAGCGAAGAAAUGAACAAAGAAAAUCUGGGCCUGGCAGGCAUCAAAAGAAAUAGUCUUGCGCUCAACCAGAAAGUCCGUAAUCAUUUUAAGGGUA [A27G U49C A78U U122C], which self-cleavage is on record?
Answer: The self-cleavage was 0.19.

Question: For GUUAACGGUCAUAGGCCAUGGAAACUAGGAGCACCAUUUCGCAGCCAGUGAAGAAAUGAACAAGGAAAAUCUGGGCCUGGCAGGCAUCAAGUGAAAUAGUCUUGCGCACAACCAGAAAGUCUGUAAUCAUUUUAAGGGUA [U43A A64G A78U A91G A92U U108A], which self-cleavage is on record?
Answer: The self-cleavage was 0.02.

Question: For GUUAGCGGUCAUAGGCCAUGGAGACUAGGAGCACCAUUUCGCUGCCAGUGAAGAAAUGAGCAAAGAAAAUCUGGGCCAGGCAGGCAUCAAAAGAAAUAGUCUUGCGCUCAACCAGAAAGUCUGUAAUCAUUUUAAGGGUA [A5G A23G A60G], which self-cleavage is on record?
Answer: Its self-cleavage is 1.34.

Question: With GUUAACGGUCAUAGGCCAUGGAAACUAGGAGCACCAUUUCGCUGCCAGUGAAGAAAUAAACAAAGAGAAUCUGGGCCAGGCAGGCAUCAAAAGAAAUAGUCUUGCGCUCAACCAGAGAGUCUGUAAUCAUUCUAAGGGUA [G58A A67G A117G U132C] as the variant, how does the self-cleavage read?
Answer: Its self-cleavage is 2.1.

Question: With GUUAACGGUCAUAGGCCAUGGAAACUAGGGGCACCAUUUCGCUGCCAGUGAAGAUAUGAACAAAGAGAAUCUGGGCCAGGCAGGCAUCAAAAGAAAUAGUCUUGCGCUCAACCAGAAAGUCUGUAAUCAUUUUAAGGGUA [A30G A55U A67G] as the variant, how does the self-cleavage read?
Answer: The self-cleavage was 1.71.

Question: Which self-cleavage does the source give for GUUAACGGUCAAAGGCCAUGGAAACUAGGAGCACCAUUUCGCUGCCAGUGAAGAAAUGAACAAGGAAAAUCUGGGCCAGGUAGGCAUCAAAAGAAAUAGUCUUGCGCUCGACCAGAAAGUCUGUAAUCAAUUUAAGGGUA [U12A A64G C81U A110G U130A] here?
Answer: The self-cleavage was 0.09.

Question: Which self-cleavage does the source give for GUUAACGGUCAUAGGCCAUGGAAACUAGGAGCACCAUUUCGCUGCCAGCGAAGAAAUGAACAAAGAAAAUCUGGGCCAGGCAGGCAUCAGAAGAAAUAGUCCUGCGCUCAACCAGAAAGUCUGUAAUCAUUUUAAGGGUA [U49C A90G U102C] here?
Answer: The self-cleavage was 2.04.

Question: With GUUAACGGUCAUAGGCCAUGGAAACCAGGAGCACCAUUUCGCUGCCAGUGAAGAAGUGAACUAAGAAAAUCUGGGCCAGGCAGGCAUCGAAAGAAAUAGUCUUGCGCUCAACCAGAAAGUCUGUAAUCAUCUUAAGGGUA [U26C A56G A62U A89G U131C] as the variant, how does the self-cleavage read?
Answer: Its self-cleavage is 0.51.

Question: With GUUAACGGUCAUAGGCCAUGGGAACUAGGAGCACCAUUUCGCUGCCAGCGAAGAAAUGAACAAAGAAAACCUGGGCCAGGAAGACAUCAAAAGAAAUAGUCUUGCGCUCAACCAGAAAGUCUGUAAUCAUUUUAAGGGUA [A22G U49C U70C C81A G84A] as the variant, how does the self-cleavage read?
Answer: The self-cleavage was 0.15.

— the RNAGym collection of RNA variant scans (doi:10.7554/elife.90254)
